# Hit rate of the full screen: of about 390,000 compounds, about 4,700 (1.2%) were called active. Inconclusive results, whose numbers are uncertain, are shown with a selection of clear calls. The call rests on the fitted dose curve; in most records, active means well fitted inhibition curve with a large enough effect; inconclusive means small, poorly fitted or top-dose-only effect, or another doubt; inactive means no such curve, though single readings can be large or run the other way. Where the call is inconclusive, the potency comes from a doubtful curve fit.
# Molecular target: DNA polymerase eta (Homo sapiens) (UniProt Q9Y253)
# Experiment: qHTS for Inhibitors of Polymerase Eta
# Settings: recombinant Pol eta, fluorescent DNA replication assay; series mostly up to 114 µM
# Method in brief: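 Pol eta (10 nM) was preincubated with compounds for 15 min at room temperature, after which fluorescent replication substrate (50 nM final) was added to start the reaction. Fluorescence was read kinetically at 0 and 10 min.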
# Potency means the concentration at half of the fitted maximal effect; tags describe the fitted curve by direction and shape.
# UniProt Q9Y253, sequence (Q9Y253 whole entry, looked up): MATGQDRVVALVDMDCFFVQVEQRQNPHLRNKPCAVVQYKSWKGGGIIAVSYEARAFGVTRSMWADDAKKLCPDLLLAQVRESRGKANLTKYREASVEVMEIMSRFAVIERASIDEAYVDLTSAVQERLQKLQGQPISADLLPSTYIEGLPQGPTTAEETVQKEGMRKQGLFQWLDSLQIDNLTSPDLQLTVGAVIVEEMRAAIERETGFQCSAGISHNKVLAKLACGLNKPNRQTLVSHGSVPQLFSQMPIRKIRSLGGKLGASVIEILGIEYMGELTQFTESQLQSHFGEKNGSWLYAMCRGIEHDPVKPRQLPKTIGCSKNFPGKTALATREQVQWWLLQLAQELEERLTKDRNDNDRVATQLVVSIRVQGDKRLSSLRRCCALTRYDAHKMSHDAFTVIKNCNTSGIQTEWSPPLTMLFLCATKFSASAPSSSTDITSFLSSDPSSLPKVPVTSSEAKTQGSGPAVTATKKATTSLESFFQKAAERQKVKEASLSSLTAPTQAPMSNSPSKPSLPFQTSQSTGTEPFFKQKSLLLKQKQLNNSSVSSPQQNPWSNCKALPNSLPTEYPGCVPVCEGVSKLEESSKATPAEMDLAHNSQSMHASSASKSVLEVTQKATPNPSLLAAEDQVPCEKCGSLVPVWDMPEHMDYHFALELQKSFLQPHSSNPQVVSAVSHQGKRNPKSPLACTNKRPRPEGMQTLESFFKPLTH
row,SMILES,Potency
1,CCCCN(CC)C(=O)Cn1c(=O)n(-c2ccc(OCC)cc2)c(=O)c2c3c(sc21)CCC3,inactive
2,CCOc1ccc(CNC(=O)c2ccc(Sc3ccc(C)cc3)c(NC(C)=O)c2)cc1OC,"inconclusive: 31.6 µM [inhibitor, partial curve, poor fit]"
3,CCOc1ccc(NC(=O)c2cccc3c2C(=O)N(Cc2cccnc2)C3)cc1,"inconclusive: 28.2 µM [inhibitor, single point]"
4,COc1ccc(-c2csc(NC(=O)CSc3nc(C)cs3)n2)cc1,"inconclusive: 39.8 µM [inhibitor, partial curve, poor fit]"
5,COc1ccc(-c2ccc3c(c2)S(=O)(=O)c2cccc(C(=O)NCCOc4ccccc4Cl)c2C3=O)cc1OC,"inconclusive: 3.55 µM [inhibitor, full curve, poor fit]"
6,COC(=O)CSc1nnc(CNS(=O)(=O)c2ccc(C)cc2)n1C,"inconclusive: 89.1 µM [inhibitor, partial curve, poor fit]"
7,CN(CCO)c1ccc(C=NNc2ccc([N+](=O)[O-])cc2S(=O)(=O)Nc2ccccc2C(=O)O)cc1,"inconclusive: 56.2 µM [inhibitor, partial curve, poor fit]"
8,CC(=O)Nc1ccc(NC(=O)CSc2nc(=O)n(Cc3cccnc3)c3c2CCC3)cc1,"inconclusive: 12.6 µM [inhibitor, partial curve, poor fit]"
9,Cc1sc(NC(=O)C2CCCO2)c(C(N)=O)c1C (stereo unspecified),"inconclusive: 25.1 µM [inhibitor, partial curve]"
10,CN(C(=O)CSc1cn(CC(=O)N2CCCCCC2)c2ccccc12)c1ccccc1,inactive
11,O=C(NC(=S)N1CCCc2ccccc21)c1ccc(Cl)cc1,inactive
12,C=COC(=O)CSc1snc(SCC(=O)OC)c1C#N,"inconclusive: 20 µM [inhibitor, partial curve, poor fit]"
13,CC(=O)Nc1ccc(NC(=O)CSc2ccccn2)cc1,inactive
14,CC(=O)Nc1ccc(NC2=C/C(=N/S(=O)(=O)c3cccs3)c3ccccc3C2=O)cc1,"inconclusive: 56.2 µM [inhibitor, partial curve, poor fit]"
15,COc1ccc(CSc2nncn2N)cc1[N+](=O)[O-],"inconclusive: 100 µM [inhibitor, partial curve, poor fit]"
16,COc1ccc(-n2c(C)cc(/C=C/c3nc(O)c([N+](=O)[O-])c(=O)[nH]3)c2C)cc1,active: 20 µM
17,CN(C)c1ccc(C=c2c3cc(O)ccc3n3c2cc(-c2ccccc2)[n+]3C)cc1,"inconclusive: 20 µM [inhibitor, full curve, poor fit]"
18,Nc1cccc(C(=O)OCC(=O)Nc2cccc3c2C(=O)c2ccccc2C3=O)c1,"inconclusive: 17.8 µM [inhibitor, partial curve, poor fit]"
19,Cc1cc(C)cc(NC(=O)CSCn2nnc3c(=O)[nH]c(Cc4ccc(F)cc4)nc32)c1,"inconclusive: 100 µM [inhibitor, single point]"
20,O=C1/C(=C\c2cc([N+](=O)[O-])ccc2O)SC(=S)N1Cc1ccc(Cl)cc1,"inconclusive: 100 µM [inhibitor, single point]"
21,O=C(O)CSc1ncnc2nc[nH]c12,inactive
22,Cc1cccc(C(=O)OCC(=O)c2csc(N3CCCCC3)n2)c1[N+](=O)[O-],"inconclusive: 17.8 µM [inhibitor, full curve, poor fit]"

row,SMILES,Potency
1,COC(=O)c1sc(-c2ccc(Cl)cc2)cc1NC(=O)/C=C/C(=O)O,"inconclusive: 79.4 µM [inhibitor, partial curve]"
2,COCCCn1c(SCc2nc3ccccc3c(=O)[nH]2)nc2ccccc2c1=O,"inconclusive: 17.8 µM [inhibitor, single point]"
3,CCC(=O)N1CCc2cc(Br)cc(S(=O)(=O)N3CCCC(C(=O)O)C3)c21 (stereo unspecified),"inconclusive: 56.2 µM [inhibitor, partial curve, poor fit]"
4,O=C(Nc1cccc(-c2nc3cccnc3s2)c1)c1ccc(Cl)nc1,"inconclusive: 5.62 µM [inhibitor, full curve, poor fit]"
5,Cc1cc(C)c2nc(-c3ccco3)cc(C(=O)O)c2c1,active: 22.4 µM
6,C=CCn1c(O)c(N=NC(=O)CNC(=O)/C=C/c2ccco2)c2ccccc21,active: 50.1 µM
7,COc1c(N2CCN(C(=S)Nc3ccccc3F)C(C)C2)c(F)cc2c(=O)c(C(=O)O)cn(C3CC3)c12 (stereo unspecified),"inconclusive: 79.4 µM [inhibitor, partial curve, poor fit]"
8,Cc1ccc2c(CC(=O)N3CCN(S(=O)(=O)c4ccccc4)CC3)coc2c1,active: 31.6 µM
9,CCOC(=O)c1c(C)oc2ccc(NS(=O)(=O)c3ccc(C(=O)O)cc3)cc12,"inconclusive: 79.4 µM [inhibitor, partial curve]"
10,COc1nc(N)nc(N2CCOCC2)n1,"inconclusive: 89.1 µM [inhibitor, partial curve, poor fit]"
11,Cc1cc(=O)[nH]c(SCC(=O)Nc2ccc(S(N)(=O)=O)cc2)n1,active: 20 µM
12,CCOC(=O)CC(c1ccc(N)cc1)n1c(C)ccc1C (stereo unspecified),inactive
13,Cc1noc(NS(=O)(=O)c2ccc(N/C=C\C(=O)c3cccc4ccccc34)cc2)c1C,"inconclusive: 79.4 µM [inhibitor, partial curve]"
14,Cc1cc2nn(-c3cccc4ccccc34)nc2cc1N,"inconclusive: 31.6 µM [inhibitor, single point]"
15,NS(=O)(=O)c1ccc(NC(=O)c2ccc(S(=O)(=O)N3CCCCCC3)cc2)cc1,"inconclusive: 2.51 µM [inhibitor, full curve, poor fit]"
16,O=C(COc1ccc(Cl)cc1Br)Nc1ccccc1N1CCCC1,"inconclusive: 44.7 µM [inhibitor, partial curve, poor fit]"
17,CC(=O)c1cccc(S(=O)(=O)N2CCC(C(=O)OC3CCOC3=O)CC2)c1 (stereo unspecified),active: 44.7 µM
18,COC(=O)c1ccc(COC(=O)C2CC(O)CN2S(=O)(=O)c2ccc([N+](=O)[O-])cc2)cc1 (stereo unspecified),"inconclusive: 89.1 µM [inhibitor, partial curve, poor fit]"
19,CN(CC(=O)Nc1ccccc1C(F)(F)F)C(=O)COc1ccccc1Cc1ccccc1,"inconclusive: 39.8 µM [inhibitor, partial curve, poor fit]"
20,Cc1cc(C)c(NC(=O)CS(=O)CC(=O)NCCN2CCCCCC2)c(C)c1 (stereo unspecified),inactive
21,CC1CCc2sc(C(=O)N/N=C/c3ccc(O)cc3)cc2C1 (stereo unspecified),inactive
22,Cc1ccc(C)n1C(CC(=O)O)c1ccc(C#N)cc1 (stereo unspecified),active: 22.4 µM

row,SMILES,Potency
1,Cc1ccc(/C=c2\sc3nc(-c4ccco4)nn3c2=O)o1,active: 3.55 µM
2,Cc1cccc(NC(=O)C(c2ccccc2)N2Cc3ccccc3C2=O)c1C (stereo unspecified),inactive
3,Cc1ccc2nc(/C(C#N)=C/c3ccc(-c4ccccc4C(=O)O)o3)[nH]c2c1,active: 20 µM
4,COc1ccc(N2C(=O)C3CCCN3C2c2cccs2)cc1 (stereo unspecified),"inconclusive: 100 µM [inhibitor, partial curve, poor fit]"
5,Cc1cccc(CNC(=O)c2ccc(-c3nc(CS(=O)(=O)c4ccccc4)c(C)o3)cc2)c1,"inconclusive: 100 µM [inhibitor, partial curve, poor fit]"
6,COc1cc(-c2noc(C)c2/C=C/c2ccc(C(=O)O)cc2)cc(OC)c1OC,active: 12.6 µM
7,O=C(CN1C(=O)CCSc2ccc(S(=O)(=O)N3CCCC3)cc21)Nc1cccc(Cl)c1,inactive
8,O=c1[nH]c(=O)c2nc(-c3ccc(Cl)cc3)cnc2[nH]1,inactive
9,O=C(NCC(c1ccco1)N1CCOCC1)c1ccc([N+](=O)[O-])cc1 (stereo unspecified),"inconclusive: 100 µM [inhibitor, partial curve, poor fit]"
10,Cn1c(C(=O)OCC(=O)NCc2ccco2)cc2sccc21,"inconclusive: 89.1 µM [inhibitor, single point]"
11,O=C(O)c1ccc(-n2cccc2/C=N\NC(=O)c2cc3cc(Br)ccc3o2)cc1,active: 3.16 µM
12,Cc1oc(C)c2c(=O)ccc3c(c12)OC(N)=C(C#N)C3c1ccccc1 (stereo unspecified),"inconclusive: 28.2 µM [inhibitor, full curve]"
13,CCn1cc(C(=O)N2CCN(c3ccccc3)CC2)c(=O)c2cc(S(=O)(=O)N(C)C3CCCCC3)ccc21,inactive
14,COc1cc(OC)c(NC2=CC(=O)C(=O)c3ccccc32)cc1Cl,"inconclusive: 79.4 µM [inhibitor, partial curve]"
15,O=C(O)c1ccc(N/N=C/c2ccc(-c3cc(Cl)ccc3Cl)o2)cc1,active: 79.4 µM
16,CCNC(=S)N/N=C/c1cn(Cc2ccc(F)cc2)c2ccccc12,"inconclusive: 79.4 µM [inhibitor, partial curve, poor fit]"
17,O=C(O)C1C2C=CC(O2)C1C(=O)Nc1ccccc1C(F)(F)F (stereo unspecified),"inconclusive: 20 µM [inhibitor, single point]"
18,O=C(O)Cc1ccc(NC(=O)COc2ccc3ccccc3c2)cc1,inactive
19,N#Cc1ccccc1S(=O)(=O)N1CCN(C(=O)c2cc3c(s2)CCC3)CC1,active: 20 µM
20,COc1cccc(C(=O)NCc2ccc3c(c2)cc(C)n3C)c1,"inconclusive: 89.1 µM [inhibitor, partial curve, poor fit]"
21,COc1ccc(S(=O)(=O)CC2(O)CCN(C(=O)C(C)(C)C)CC2)cc1,"inconclusive: 89.1 µM [inhibitor, partial curve, poor fit]"
22,Cc1cc(C)cc(N(C)S(=O)(=O)c2nnc(NC(=O)COc3ccc(C)c(C)c3)s2)c1,"inconclusive: 89.1 µM [inhibitor, single point]"

# — PubChem BioAssay AID588591 (National Center for Advancing Translational Sciences (NCATS), 2011)
